Assay results published in PubChem BioAssay (NCATS).
Inconclusive means that the source gave no clear call. Such entries were picked first, then a sample of the others. For part of these data: Where the call is inconclusive, the potency comes from a doubtful curve fit. Activity calls are given as the source filed them. Unless noted, the call rests on the fitted dose curve; in most records, active means well fitted curve in the direction sought with a large enough effect; inconclusive means small, poorly fitted or top-dose-only effect, or another doubt; inactive means no such curve, though single readings can be large; an effect the other way counts as inactive or inconclusive.

How the values were obtained:
[1] = Primary qHTS for inhibitors of nuclear receptor binding SET domain protein 2 (NSD2) in an isogenic RCH-ACV NSD2 p.E1099K mutant (9B) (AID 1645876); further: nearly all actives have a fitted effect of over 70% in size; further: potency means the concentration at half of the fitted maximal effect
[2] = Primary fluorescence-based thiol-reactive (MSTI) qHTS assay for identification of artifact compounds. (AID 1845221); further: potency means the concentration at half of the fitted maximal effect;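 further: thiol-reactive compounds lower the probe fluorescence signal; nearly all actives have a fitted effect of over 65% in size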
Outline: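 Reactivity toward the thiol probe MSTI (4 uM) is scored by fluorescence at Ex/Em 525/598 nm after 1 h at room temperature. Acetyl-MSTI and MSTI define the activity scale.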

[3] = test system: HEK293; assay: Cytotoxic Profiling of Annotated Libraries Using Quantitative High-Throughput Screening (AID 1296008); details: Five cell lines viability, CellTiter-Glo ATP luminescence, 48-72 h; max response: active compounds read low; further: nearly all actives have a fitted effect of over 60% in size; further: potency means the concentration at half of the fitted maximal effect; on max response: on the % scale 0 is the no-effect control and ±100 the full control effect
Outline: (§1)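 Compounds were pin-transferred onto cells and incubated 48 or 72 hr at 37 degree Celsius, 95% humidity. CellTiter-Glo was added, plates sat 10 min at room temperature, then ATP-coupled luminescence was imaged as the viability read-out.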

[4] = Primary redox qHTS assay for identification of artifact compounds. (AID 1845223); details: Amplex Red/HRP redox cycling with DTT, fluorescence; redox activity (% of DA3003): at 53.8 µM (top of the series);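 further: 0% = DMSO and 100% = reference compound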
Outline: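 Redox-cycling detection via DTT (250 uM final) oxidation coupled to Amplex Red (25 uM)/HRP (250 mU/mL) in HBSS. 15 min preincubation plus 30 min after DTT, room temperature. Ex/Em 525/598 nm; 4-parameter Hill fit against DMSO and 10 uM DA3003.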

[5] = Primary qHTS for inhibitors of nuclear receptor binding SET domain protein 2 (NSD2) in an RCH-ACV wild type WT cells (2C) (AID 1645877); details: activity change, negative = cell killing: at 44.9 µM (top of the series) unless noted; further: nearly all actives have a fitted effect of over 70% in size; further: potency means the concentration at half of the fitted maximal effect; on activity change, negative = cell killing: on the % scale 0 is the no-effect control and ±100 the full control effect
[6] = P-glycoprotein substrates identified in KB-3-1 adenocarcinoma cell line, qHTS therapeutic library screen (AID 1346986); further: nearly all actives have a fitted effect of over 60% in size
Outline: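 72 h cell-killing screen, 500 cells/well, CellTiter-Glo luminescence. Paired lines KB-3-1/KB-8-5-11; P-gp dependence checked by tariquidar co-treatment and HEK-293 MDR-19 versus empty-vector cells.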

[7] = qHTS of pediatric cancer cell lines to identify multiple opportunities for drug repurposing: Primary screen for SK-N-MC cells (AID 1347093); details: SK-N-MC viability, CellTiter-Glo luminescence, 48 h; activity change, negative = cytotoxic: at 46 µM (top of the series);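 further: plate controls were DMSO neutral control for no effect and bortezomib for full effect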
Outline: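 Metabolically active cells were quantified by ATP-dependent luminescence (CellTiter-Glo, 15 min at room temperature) following 48 h treatment. Cells had been plated at 500-1,000 per well and settled for 5 h beforehand.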

[8] = qHTS of pediatric cancer cell lines to identify multiple opportunities for drug repurposing: Primary screen for BT-37 cells (AID 1347094);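 further: plate controls were DMSO for no effect and bortezomib for full effect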
Outline: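 Viability was measured as metabolically active cells after 48 hours of treatment, read by CellTiter-Glo luminescence. Compounds were tested at multiple final concentrations, giving concentration-response curves.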

[9] = qHTS of pediatric cancer cell lines to identify multiple opportunities for drug repurposing: Primary screen for OHS-50 cells (AID 1347103);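 further: plate controls were DMSO neutral control for no effect and bortezomib positive control for full effect; nearly all actives have a fitted effect of over 40% in size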
Outline: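 Cells (500-1,000/well) rested 5 h, then received compounds for 48 h; metabolically active cells were measured by CellTiter-Glo luminescence. Final concentrations spanned up to 46 µM (MIPE, 11-point) or 0.59 nM-46 µM (NPC, 8-point) in primary screens, 11-point in follow-ups.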

[10] = Primary qHTS for small molecule stabilizers of the endoplasmic reticulum resident proteome: Secreted ER Calcium Modulated Protein (SERCaMP) assay (AID 1508630); details: SH-SY5Y GLuc-SERCaMP (Gaussia luciferase released on ER calcium loss) secretion, thapsigargin, luminescence; activity change, negative = inhibition: at 38.4 µM (top of the series) unless noted; further: potency means the concentration at half of the fitted maximal effect
Outline: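 The SH-SY5Y reporter protocol was run at 3 concentrations up to 38.3 uM (primary) or 11 concentrations (follow-up): 16 h compound, 100 nM thapsigargin for 4 h, then extracellular luciferase luminescence.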

[11] = A High-Content qHTS Against Drug Library for the Identification of Small Molecules that Inhibit DYT1 Early Onset Primary Dystonia-Associated Cell Pathology (AID 1645839; calls by dose curve)
Outline: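 Induced EGFP-delE TorsinA cells are imaged after 48 h of compound treatment. Punctate fusion-protein distribution gives the %pathology value, while nuclei counts flag toxicity. Wild-type EGFP-hTOR1A cells define the normal pattern.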

[12] = test system: HaCat; assay: Cytotoxic Profiling of Annotated Libraries Using Quantitative High-Throughput Screening (AID 1296008); details: Five cell lines viability, CellTiter-Glo ATP luminescence, 48-72 h; max response: active compounds read low; further: nearly all actives have a fitted effect of over 60% in size; further: potency means the concentration at half of the fitted maximal effect; on max response: on the % scale 0 is the no-effect control and ±100 the full control effect
Outline: as §1

[13] = test system: CASKI; assay: Primary qHTS to identify gynecologic anti-cancer compounds using libraries of approved drugs and bioactive compounds (AID 1345084); details: Gynecologic cancer cell panel viability, ATPlite luminescence, 48 h; series mostly up to 57.5 µM; further: nearly all actives have a fitted effect of over 55% in size; further: potency means the concentration at half of the fitted maximal effect
Outline: (§2)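 Measured: luminescence after ATPlite addition (15 min, RT). Exposure: 48 h, 37 C, 5% CO2.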

[14] = Drug repurposing screens with cells derived from glioblastoma tumor samples (AID 1345199); details: GBM patient neurospheres viability, ATP luminescence, 48 h; Potency: tumour line A unless noted; activity, negative = cell killing: at 46 µM (top of the series), tumour line A unless noted; further: potency means the concentration at half of the fitted maximal effect; nearly all actives have a fitted effect of over 40% in size
Outline: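 Primary testing used CD133+ neurospheres from four GBM patients, seven concentrations, 48 h exposure and ATP-based viability; confirmation added three slower-growing patient lines.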

[15] = P-glycoprotein substrates identified in KB-8-5-11 adenocarcinoma cell line, qHTS therapeutic library screen (AID 1346987); further: potency means the concentration at half of the fitted maximal effect; nearly all actives have a fitted effect of over 65% in size
Outline: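 Compounds are pinned in dose-response onto KB-8-5-11 cells (500 cells/well, colchicine-free medium) and left 72 h at 37 degree C. CellTiter-Glo luminescence then yields AC50 values.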

[16] = molecular target: Phospholipid hydroperoxide glutathione peroxidase GPX4 (Homo sapiens) (UniProt P36969); assay: Primary qHTS Assay for Inhibitors of Recombinant Selenoprotein Glutathione Peroxidase 4 (GPX4) (AID 1845192); further: nearly all actives have a fitted effect of over 65% in size
Outline: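 qHTS, GR-coupled: GPX4 200 nM + cpd 30 min RT → GSH 1 mM, NADPH 0.5 mM, GR 100 nM → CHP 0.5 mM start; fluor 340/450 at t0 and t15 min; no-enzyme wells as control.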

[17] = test system: KB-3-1; assay: Cytotoxic Profiling of Annotated Libraries Using Quantitative High-Throughput Screening (AID 1296008); details: Five cell lines viability, CellTiter-Glo ATP luminescence, 48-72 h; max response: active compounds read low; further: nearly all actives have a fitted effect of over 60% in size; further: potency means the concentration at half of the fitted maximal effect; on max response: on the % scale 0 is the no-effect control and ±100 the full control effect
Outline: as §1

[18] = test system: NIH3T3; assay: as above; details: Five cell lines viability, CellTiter-Glo ATP luminescence, 48-72 h; max response: active compounds read low
Outline: as §1

[19] = test system: C33A; assay: Primary qHTS to identify gynecologic anti-cancer compounds using libraries of approved drugs and bioactive compounds (AID 1345084); details: Gynecologic cancer cell panel viability, ATPlite luminescence, 48 h; series mostly up to 57.5 µM; further: nearly all actives have a fitted effect of over 55% in size; further: potency means the concentration at half of the fitted maximal effect
Outline: as §2

[20] = test system: CAOV3; assay: as above; details: Gynecologic cancer cell panel viability, ATPlite luminescence, 48 h; activity change, negative = cytotoxicity: at 57.5 µM (top of the series)
Outline: as §2

[21] = test system: Es-2; assay: as above; details: Gynecologic cancer cell panel viability, ATPlite luminescence, 48 h; series mostly up to 57.5 µM
Outline: as §2

[22] = test system: Hek293T; assay: as above; details: Gynecologic cancer cell panel viability, ATPlite luminescence, 48 h, control line for the selectivity index; activity change, negative = cytotoxicity: at 57.5 µM (top of the series) unless noted
Outline: as §2

[23] = test system: PA-1; assay: as above; details: Gynecologic cancer cell panel viability, ATPlite luminescence, 48 h; series mostly up to 57.5 µM
Outline: as §2

[24] = test system: SKOV3; assay: as above; details: Gynecologic cancer cell panel viability, ATPlite luminescence, 48 h; series mostly up to 57.5 µM
Outline: as §2

[25] = test system: Tov112D; assay: as above; details: Gynecologic cancer cell panel viability, ATPlite luminescence, 48 h; series mostly up to 57.5 µM
Outline: as §2
Tags describe the fitted curve by direction and shape.

UniProt P36969, sequence (P36969 whole entry, looked up): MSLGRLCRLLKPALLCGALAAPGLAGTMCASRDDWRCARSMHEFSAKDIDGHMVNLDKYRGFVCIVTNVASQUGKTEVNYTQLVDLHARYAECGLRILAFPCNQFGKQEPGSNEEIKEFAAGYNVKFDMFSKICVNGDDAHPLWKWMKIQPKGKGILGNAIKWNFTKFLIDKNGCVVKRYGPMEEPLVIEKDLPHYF

Question: Which Potency [1] does the source give for O=C(/C=C/c1ccc(O)cc1)O[C@H]1[C@@H]2C=CO[C@@H](O[C@@H]3O[C@H](CO)[C@@H](O)[C@H](O)[C@H]3O)[C@@H]2[C@@]2(CO)O[C@@H]12 here?
Answer: inactive

Question: What about the Potency [2] of the same compound?
Answer: inconclusive: 11.6 µM [inhibitor, partial curve]

Question: And the outcome [3]?
Answer: inactive

Question: With CC(C)C(C)C(O)C1CC23CC(=O)C4(O)C(=C2CCC3C1C)C=CC1(O)CC(O)CCC14C (configuration not stated) as the compound, how does the Potency [4] read?
Answer: inactive

Question: And the Potency [3]?
Answer: inconclusive: 3.55 µM [inhibitor, partial curve, poor fit]

Question: For O=C(/C=C/c1ccccc1O)O[C@@H]1O[C@H](CO)[C@@H](O)[C@H](O)[C@H]1O, which Potency [1] is on record?
Answer: inactive

Question: And the Potency [5]?
Answer: inactive

Question: And the Potency [3]?
Answer: inconclusive: 20.2 µM [inhibitor, single point]

Question: With CCCCS(=O)(=O)N[C@@H](Cc1ccc(OCCCCC2CCNCC2)cc1)C(=O)O as the compound, how does the Potency [6] read?
Answer: inactive

Question: And the Potency [7]?
Answer: inactive

Question: And the Potency [8]?
Answer: inactive

Question: What about the Potency [9] of the same compound?
Answer: inactive

Question: What about the Potency [10] of the same compound?
Answer: inconclusive: 31.6 µM [inhibitor, partial curve, poor fit]

Question: And the Potency [11]?
Answer: inactive

Question: And the Potency [5]?
Answer: inactive

Question: What about the max response [12] of the same compound?
Answer: inactive: -0.76%

Question: And the outcome [12]?
Answer: inactive

Question: And the Potency [13]?
Answer: inactive

Question: What about the Potency [14] of the same compound?
Answer: active: 11.2 µM

Question: With O=C(NN1CCCCC1)c1nn(-c2ccc(Cl)cc2Cl)c(-c2ccc(C#Cc3ccc(C(F)(F)F)cc3)s2)c1CNS(=O)(=O)N1CCCC1 as the compound, how does the Potency [5] read?
Answer: inactive

Question: And the Potency [4]?
Answer: inactive

Question: And the outcome [3]?
Answer: inactive

Question: With CO[C@@H]1[C@H](O)CCC2(CO2)[C@H]1[C@@]1(C)O[C@@H]1CC=C(C)C (some centres not stated) as the compound, how does the Potency [1] read?
Answer: inconclusive: 3.25 µM [inhibitor, partial curve, poor fit]

Question: What about the Potency [5] of the same compound?
Answer: inconclusive: 7.28 µM [inhibitor, partial curve]

Question: What about the Potency [2] of the same compound?
Answer: inactive

Question: And the Potency [3]?
Answer: inconclusive: 0.651 µM [inhibitor, full curve]

Question: With CC1CCC2(OC1)OC1CC3C4CCC5C[C@@H](O[C@@H]6O[C@H](CO[C@@H]7OC[C@@H](O)[C@H](O)[C@H]7O)[C@H](O)[C@H](O)[C@H]6O)CC[C@]5(C)C4CC[C@]3(C)C1C2C (some centres not stated) as the compound, how does the Potency [12] read?
Answer: inconclusive: 9.68 µM [inhibitor, single point]

Question: Which Potency [15] does the source give for C=C1C(=O)O[C@@H]2[C@H]1CC(=O)[C@H](C)[C@@](O)(C(=O)/C=C/C)[C@H]2OC(=O)C(C)CC (some centres not stated) here?
Answer: active: 5.7 µM

Question: And the Potency [1]?
Answer: active: 1.27 µM

Question: And the Potency [16]?
Answer: inactive

Question: And the Potency [4]?
Answer: inactive

Question: And the Potency [12]?
Answer: inconclusive: 12.8 µM [inhibitor, single point]

Question: What about the Potency [17] of the same compound?
Answer: inconclusive: 20.2 µM [inhibitor, single point]

Question: What about the Potency [18] of the same compound?
Answer: active: 4.04 µM

Question: And the Potency [19]?
Answer: inconclusive: 28.2 µM [cytotoxic, single point]

Question: What about the Potency [20] of the same compound?
Answer: inconclusive: 20 µM [cytotoxic, single point]

Question: What about the Potency [13] of the same compound?
Answer: active: 10 µM

Question: What about the Potency [21] of the same compound?
Answer: inconclusive: 7.94 µM [cytotoxic, partial curve, poor fit]

Question: And the Potency [22]?
Answer: active: 10 µM

Question: And the Potency [23]?
Answer: active: 11.2 µM

Question: What about the Potency [24] of the same compound?
Answer: inconclusive: 11.2 µM [cytotoxic, single point]

Question: And the Potency [25]?
Answer: inconclusive: 10 µM [cytotoxic, single point]
